Consider 48 molecules from PubChem BioAssay AID1508642 (National Center for Advancing Translational Sciences (NCATS), 2021).

Hit rate of the full screen: of about 43,000 compounds, about 200 (0.47%) were called active. Another 12% or so got no clear call; they are omitted. The call rests on the fitted dose curve; in most records, active means well fitted cell-killing curve with a large enough effect; inconclusive means small, poorly fitted or top-dose-only effect, or effect the other way; inactive means flat fitted curve, though single readings scatter. Some of the results follow.
On the % scale 0 is the no-effect control and ±100 the full control effect.

This test in a line: Cell viability qHTS assay in S16 Pmp22-F2sN cells. Further: nearly all actives have a fitted effect of over 65% in size. To be noted: S16 Pmp22-F2sN Schwann cells viability, CellTiter-Glo, 24 h; series mostly up to 57.5 µM; activity change, negative = cytotoxicity: at the top concentration. In outline:
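Viability was measured by CellTiter-Glo luminescence (15 min, room temperature). This followed 24 h at 37 °C of compound exposure (23 nL pin transfer) in S16 Pmp22-F2sN Schwann cells, 500-1,000 per well.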
For the molecule `COc1ccc(Cn2nnc3c(=O)[nH]c(C4CCCN(C(=O)c5ccc(C)cc5)C4)nc32)cc1` (stereo not drawn), the “activity change, negative = cytotoxicity” value was inactive: -0.0837%. To `CCCCc1ccc(NC(=O)Cn2nnc3sc4c(c3c2=O)CCC(C)C4)cc1` (stereo not drawn) belongs inactive: 3.41%; to `CCOC(=O)c1ccccc1NS(=O)(=O)c1ccc(N2CCCCS2(=O)=O)cc1`, inactive: -12.1%; to `CCc1nn(CC(=O)NC(C)CC)c(=O)c2cc3c(OC)cccc3n12` (stereo not drawn), inactive: 0.983%. To `Cc1cccc(-n2c(SCc3nc(-c4ccccc4C)no3)nnc2-c2ccccc2)c1` belongs inactive: 6.38%; to `CN1CCN(c2oc(/C=C/c3ccc(F)cc3)nc2C#N)CC1`, inactive: 2.36%.

For `Cc1cccn2c(=O)c(C(=O)NCc3ccccc3Cl)c(O)nc12`, the “activity change, negative = cytotoxicity” value is inactive: -1.88%. To `CCOc1ccc(-n2nc(CO)c(C(=O)NCc3cccnc3)n2)cc1` belongs inactive: -15.4%.

In the case of `COc1ccc(-c2noc(-c3ccc(N4CCN(c5ccc(OC)cc5)CC4)c([N+](=O)[O-])c3)n2)cc1`, the “activity change, negative = cytotoxicity” value is inactive: 6.06%.

As to `COc1ccc(C2C(C(N)=O)=C(C)Nc3nc(CCCO)nn32)cc1` (stereo not drawn), the “activity change, negative = cytotoxicity” value was inactive: 2.1%. To `Cc1ccc(CCNC(=O)c2cc(Nc3ccc(C)c(C)c3)nc3ccccc23)cc1` belongs inactive: 5.01%; to `O=C(c1ccccc1Cl)N(Cc1ccco1)Cc1ccco1`, inactive: -0.297%.

Turning to `Cc1ccccc1Nc1c(-c2cccc(N(C)C)c2)nc2ccc(Br)cn12`, the “activity change, negative = cytotoxicity” value was inactive: 8.73%. To `Cc1cc(F)ccc1-n1nnc(C(N)=O)c1C` belongs inactive: 13.3%; to `CN(Cc1ccccc1)c1ccc(-c2nc(-c3ccco3)no2)cc1[N+](=O)[O-]`, inactive: 13.5%; to `CC(=O)c1cccc(NC(=O)c2c(-c3ccccc3)c(-c3ccccc3)nn(C)c2=O)c1`, inactive: -18.7%.

For the molecule `COC(=O)c1c(NC(=O)Cc2coc3ccc(C)cc23)sc2c1CCC2`, the “activity change, negative = cytotoxicity” value is inactive: -1.89%. As for `Cc1cccc(NC(=O)c2sc3nc4c(cc3c2N)CCCCCC4)c1C`, the “activity change, negative = cytotoxicity” value is inactive: 16.7%.

On to `COc1ccc(-n2nc(C(=O)Nc3ccc(Cl)cn3)c3c4ccccc4n(C)c3c2=O)cc1Cl`, for which the “activity change, negative = cytotoxicity” value is inactive: 16.8%. With `Cc1[nH]c2ccccc2c1C(c1ccccc1)c1cccs1` (stereo not drawn), the “activity change, negative = cytotoxicity” value was inactive: 1.83%. To `Cc1ccccc1NC(=O)Cn1c(=O)n(CCc2ccccc2)c(=O)c2sc3ccccc3c21` belongs inactive: 11.5%; to `Cc1cc(C(F)(F)F)nn1-c1nc(-c2ccccc2)cc(C(F)(F)F)n1`, inactive: 8.37%.

As for `CCOC(=O)c1ccc(NC(=O)CC2C(=O)N(c3ccc(C)cc3)C(=O)N2C2CCCCC2)cc1` (stereo not drawn), the “activity change, negative = cytotoxicity” value was inactive: -0.0231%.

Take `O=C(CSc1ccccc1)NCc1ccc2c(c1)CCN2C(=O)c1ccc(Cl)cc1`: the “activity change, negative = cytotoxicity” value was inactive: -4.09%. To `CC(C)(C)OC(=O)N1CCC(c2c(C(=O)NC3CCCCC3)cnn2-c2cccc(F)c2)CC1` belongs inactive: -7.73%. As for `Cc1cc(Sc2ccc(Cl)cc2)nc2ccccc12`, the “activity change, negative = cytotoxicity” value is inactive: 6.12%. To `Cc1cccc(C(=O)Nc2cccc(C(=O)OCc3cc(=O)n4nc(C(C)C)sc4n3)c2)c1` belongs inactive: -7.1%. To `Cn1nnnc1SCCNCc1ccc(OCc2ccccc2Cl)cc1` belongs inactive: -22.4%; to `CC(NC(=O)c1ccc(NC(=O)c2nsc3ccccc23)cc1)c1ccccc1` (stereo not drawn), inactive: -18.2%.

Turning to `Cc1ccc(N(C)S(=O)(=O)c2ccc3[nH]c4c(c3c2)CCCC4)cc1`, the “activity change, negative = cytotoxicity” value was inactive: 13.7%.

Consider `N#Cc1cccc(NC(=O)Cn2nc(Cc3ccncc3)c3ccccc3c2=O)c1`, for which the “activity change, negative = cytotoxicity” value is inactive: -3.37%.

For `CCN1C(=O)C(Cc2nc3ccccc3c(=O)n2-c2ccc(OC)cc2)c2cc(C)ccc21` (stereo not drawn), the “activity change, negative = cytotoxicity” value is inactive: -10%. To `Cc1ccc(C)c(Nc2nc(-c3ccccc3)c3cc(Br)ccc3n2)c1` belongs inactive: 21.9%. To `COc1ccc(CCNC(=O)CCCCn2c(=O)c3ccccc3n(CC(=O)Nc3ccc(C)cc3C)c2=O)cc1OC` belongs inactive: -7.84%; to `O=C(COc1ccccc1)NCCc1csc(-c2cccc(F)c2)n1`, inactive: 10.6%. Consider `CCN(CC)CCNC(=O)C(=O)NCC(c1cccnc1)N1CCN(c2ccccc2)CC1` (stereo not drawn), for which the “activity change, negative = cytotoxicity” value was inactive: -8.82%. To `O=C(Nc1cccc(Cl)c1)c1cc(-c2ccc3c(c2)OCCO3)on1` belongs inactive: -2.48%; to `Cc1cccc(C(=O)Nc2cccc(OCc3cc(=O)n4cccc(C)c4n3)c2)c1`, inactive: 1.25%; to `Cc1cccc(NC(=O)CSc2nnc3[nH]c(=O)cc(C)n23)c1C`, inactive: -0.199%. To `CCOC(=O)C1=C(CS(=O)(=O)c2ccc(C(C)(C)C)cc2)NC(=O)NC1c1cccc(OC)c1` (stereo not drawn) belongs inactive: 1.33%; to `O=C(CSCc1ccc(F)cc1)N1CCc2c([nH]c3ccccc23)C1c1ccc(F)cc1` (stereo not drawn), inactive: -7.68%. Turning to `O=C(CCn1c(=O)c2cccn2c2cccnc21)Nc1ccccc1Br`, the “activity change, negative = cytotoxicity” value is inactive: 18.6%. For the molecule `COc1ccc(N2CCN(C(=O)c3cnc(SC)nc3C)CC2)cc1`, the “activity change, negative = cytotoxicity” value was inactive: 15.7%. As to `COc1ccc(-c2cc3c(=O)n(CC(=O)Nc4ccc(Br)c(C)c4)ccn3n2)cc1OC`, the “activity change, negative = cytotoxicity” value is inactive: -3.98%.

Take `CCOc1ccccc1N(C)C(=O)c1cc(S(=O)(=O)NCCc2ccc(Cl)cc2)ccc1F`: the “activity change, negative = cytotoxicity” value is inactive: -29.4%. For `CCOc1ccc(NC(=O)c2ccc3c(c2)nnn3C2CCCC2)cc1`, the “activity change, negative = cytotoxicity” value is inactive: -30.2%.

With `CC(C)(C)c1ccc(C(=O)N2CCC(c3noc(-c4ccc(S(=O)(=O)N5CCCC5)cc4)n3)CC2)cc1`, the “activity change, negative = cytotoxicity” value is inactive: -23.4%. For `Cc1ccccc1CNC(=O)CCc1cn(Cc2ccccc2C)c2ccccc12`, the “activity change, negative = cytotoxicity” value is inactive: 0.654%.
